Measurements published in the supplement of paper PMC8728848.
The other results are listed elsewhere or left out.

What was measured:
Assay in all cases: glycan array binding signal (z-score within array); higher = stronger binding
Conditions in all cases: glycan notation: IUPAC condensed, linker removed
[1] = molecular target: Gal(b1-4)GlcNAc(b1-3)Gal(b1-4)GlcNAc(b1-6)[Gal(b1-3)]GalNAc
Summary of the method: (§1)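 Arrays were curated from the Consortium for Functional Glycomics database, 3228 in total, and kept only where the protein sequence was available. Binding is expressed as a within-array Z-score. This score was averaged across arrays of the same protein sequence at different concentrations or buffers and across linkers, and negative values can be read as non-binding.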

[2] = molecular target: Gal(b1-4)GlcNAc(b1-3)Gal(b1-4)[Fuc(a1-3)]GlcNAc(b1-3)Gal(b1-4)[Fuc(a1-3)]GlcNAc
Summary of the method: as §1

[3] = molecular target: Gal(b1-4)GlcNAc(b1-3)GalNAc
Summary of the method: as §1

[4] = molecular target: Gal(b1-4)GlcNAc(b1-3)[Fuc(a1-3)GlcNAc(b1-6)]Gal(b1-4)Glc
Summary of the method: as §1

[5] = molecular target: Gal(b1-4)GlcNAc(b1-3)[Gal(b1-4)GlcNAc(b1-6)]Gal(b1-4)GlcNAc
Summary of the method: as §1

[6] = molecular target: Gal(b1-4)GlcNAc(b1-3)[GlcNAc(b1-6)]Gal(b1-4)GlcNAc
Summary of the method: as §1

[7] = molecular target: Gal(b1-4)GlcNAc(b1-6)Gal(b1-4)GlcNAc
Summary of the method: as §1

[8] = molecular target: Gal(b1-4)GlcNAc(b1-6)GalNAc
Summary of the method: as §1

[9] = molecular target: Gal(b1-4)GlcNAc(b1-6)[Gal(b1-3)]GalNAc
Summary of the method: as §1

[10] = molecular target: Gal(b1-4)GlcNAc(b1-6)[Gal(b1-4)GlcNAc(b1-3)]GalNAc
Summary of the method: as §1

Gal(b1-4)GlcNAc6P = molecular target: Gal(b1-4)GlcNAc6P
Summary of the method: as §1

Gal(b1-6)Gal = molecular target: Gal(b1-6)Gal
Summary of the method: as §1

Gal3S(b1-3)GalNAc = molecular target: Gal3S(b1-3)GalNAc
Summary of the method: as §1

Gal3S(b1-3)GlcNAc = molecular target: Gal3S(b1-3)GlcNAc
Summary of the method: as §1

[11] = molecular target: Gal3S(b1-3)[Fuc(a1-4)]GlcNAc
Summary of the method: as §1

Gal3S(b1-4)Glc = molecular target: Gal3S(b1-4)Glc
Summary of the method: as §1

Gal3S(b1-4)Glc6S = molecular target: Gal3S(b1-4)Glc6S
Summary of the method: as §1

Gal3S(b1-4)GlcNAc = molecular target: Gal3S(b1-4)GlcNAc
Summary of the method: as §1

[12] = molecular target: Gal3S(b1-4)[Fuc(a1-3)]Glc6S
Summary of the method: as §1

[13] = molecular target: Gal3S(b1-4)[Fuc(a1-3)]GlcNAc
Summary of the method: as §1

[14] = molecular target: Gal3S(b1-4)[Fuc(a1-3)]GlcNAc6S
Summary of the method: as §1

Gal3S4S(b1-4)GlcNAc = molecular target: Gal3S4S(b1-4)GlcNAc
Summary of the method: as §1

Gal3S6S(b1-4)GlcNAc = molecular target: Gal3S6S(b1-4)GlcNAc
Summary of the method: as §1

Gal3S6S(b1-4)GlcNAc6S = molecular target: Gal3S6S(b1-4)GlcNAc6S
Summary of the method: as §1

Gal4S(b1-4)GlcNAc = molecular target: Gal4S(b1-4)GlcNAc
Summary of the method: as §1

Gal4S6S(b1-4)GlcNAc = molecular target: Gal4S6S(b1-4)GlcNAc
Summary of the method: as §1

Gal6P(b1-4)GlcNAc = molecular target: Gal6P(b1-4)GlcNAc
Summary of the method: as §1

Gal6S(b1-3)GlcNAc = molecular target: Gal6S(b1-3)GlcNAc
Summary of the method: as §1

Gal6S(b1-3)GlcNAc6S = molecular target: Gal6S(b1-3)GlcNAc6S
Summary of the method: as §1

Gal6S(b1-4)Glc = molecular target: Gal6S(b1-4)Glc
Summary of the method: as §1

Gal6S(b1-4)Glc6S = molecular target: Gal6S(b1-4)Glc6S
Summary of the method: as §1

Gal6S(b1-4)GlcNAc = molecular target: Gal6S(b1-4)GlcNAc
Summary of the method: as §1

Gal6S(b1-4)GlcNAc6S = molecular target: Gal6S(b1-4)GlcNAc6S
Summary of the method: as §1

GalNAc(a1-3)Gal = molecular target: GalNAc(a1-3)Gal
Summary of the method: as §1

GalNAc(a1-3)GalNAc = molecular target: GalNAc(a1-3)GalNAc
Summary of the method: as §1

[15] = molecular target: GalNAc(a1-3)GalNAc(b1-3)Gal(a1-4)Gal(b1-4)Glc
Summary of the method: as §1

[16] = molecular target: GalNAc(a1-3)GalNAc(b1-3)Gal(a1-4)Gal(b1-4)GlcNAc
Summary of the method: as §1

GalNAc(b1-3)Gal = molecular target: GalNAc(b1-3)Gal
Summary of the method: as §1

[17] = molecular target: GalNAc(b1-3)Gal(a1-4)Gal(b1-4)GlcNAc
Summary of the method: as §1

[18] = molecular target: GalNAc(b1-3)Gal(a1-4)Gal(b1-4)GlcNAc(b1-3)Gal(b1-4)Glc
Summary of the method: as §1

[19] = molecular target: GalNAc(b1-3)Gal(a1-6)Gal(b1-4)Glc
Summary of the method: as §1

GalNAc(b1-3)GalNAc = molecular target: GalNAc(b1-3)GalNAc
Summary of the method: as §1

GalNAc(b1-3)GlcNAc = molecular target: GalNAc(b1-3)GlcNAc
Summary of the method: as §1

GalNAc(b1-4)Gal(b1-4)Glc = molecular target: GalNAc(b1-4)Gal(b1-4)Glc
Summary of the method: as §1

GalNAc(b1-4)GlcNAc = molecular target: GalNAc(b1-4)GlcNAc
Summary of the method: as §1

B1: B725 (Bifidobacterium sp) (protein)
chain: MNNTTRAVIATAAIGALLIPLAGCGNTTTSSGKTELTVWSWDASIDRAAKSFMKANPDITVKVSNVGSTEETYTALNNAAQAGSGLPDVTLIEYLAIPQFVHSDTLMDLSKVYNTAKLKDTFTPGTWNSVNINGGLYAMPADSGPMAYFYDKDVFDKAGISEPPTTWDEFYEDAKKIRATGSYITSDSGDAGLFNAMMWAMGGHAYKLNDDKLTINIAKDKGAQRFMDLWQKMRDEDLIDVHTKTWTDDWMKSLGDGSIASLISGAWMANNLLQGVPQATGKFRVALLPTIDGTPINGEYGGSGLAITKKIPDGKLDAAKKFVEYVTTNDEGIDARVSNGSFPATTKTLNQKDFLAKTTLRNTDGSDNEFFGGQKYNEIFSQAAKDVTGKWEFLPFEPYARSVYNDNMGSFFAGKTSFRTAADNWQKALKDYAKDQGFTVQ
- glycan array binding signal (z-score) [1]: 0.746
- glycan array binding signal (z-score) [2]: 2.62
- glycan array binding signal (z-score) [3]: 0.358
- glycan array binding signal (z-score) [4]: -0.187
- glycan array binding signal (z-score) [5]: -0.233
- glycan array binding signal (z-score) [6]: -0.231
- glycan array binding signal (z-score) [7]: -0.093
- glycan array binding signal (z-score) [8]: -0.178
- glycan array binding signal (z-score) [9]: -0.203
- glycan array binding signal (z-score) [10]: -0.212
- glycan array binding signal (z-score) (Gal(b1-4)GlcNAc6P): -0.222
- glycan array binding signal (z-score) (Gal(b1-6)Gal): -0.194
- glycan array binding signal (z-score) (Gal3S(b1-3)GalNAc): -0.212
- glycan array binding signal (z-score) (Gal3S(b1-3)GlcNAc): -0.224
- glycan array binding signal (z-score) [11]: -0.196
- glycan array binding signal (z-score) (Gal3S(b1-4)Glc): -0.222
- glycan array binding signal (z-score) (Gal3S(b1-4)Glc6S): -0.227
- glycan array binding signal (z-score) (Gal3S(b1-4)GlcNAc): -0.209
- glycan array binding signal (z-score) [12]: -0.175
- glycan array binding signal (z-score) [13]: -0.228
- glycan array binding signal (z-score) [14]: -0.222
- glycan array binding signal (z-score) (Gal3S4S(b1-4)GlcNAc): -0.213
- glycan array binding signal (z-score) (Gal3S6S(b1-4)GlcNAc): -0.231
- glycan array binding signal (z-score) (Gal3S6S(b1-4)GlcNAc6S): -0.173
- glycan array binding signal (z-score) (Gal4S(b1-4)GlcNAc): -0.223
- glycan array binding signal (z-score) (Gal4S6S(b1-4)GlcNAc): -0.215
- glycan array binding signal (z-score) (Gal6P(b1-4)GlcNAc): -0.219
- glycan array binding signal (z-score) (Gal6S(b1-3)GlcNAc): -0.217
- glycan array binding signal (z-score) (Gal6S(b1-3)GlcNAc6S): -0.192
- glycan array binding signal (z-score) (Gal6S(b1-4)Glc): -0.205
- glycan array binding signal (z-score) (Gal6S(b1-4)Glc6S): -0.208
- glycan array binding signal (z-score) (Gal6S(b1-4)GlcNAc): -0.233
- glycan array binding signal (z-score) (Gal6S(b1-4)GlcNAc6S): -0.219
- glycan array binding signal (z-score) (GalNAc(a1-3)Gal): -0.215
- glycan array binding signal (z-score) (GalNAc(a1-3)GalNAc): -0.231
- glycan array binding signal (z-score) [15]: -0.209
- glycan array binding signal (z-score) [16]: -0.231
- glycan array binding signal (z-score) (GalNAc(b1-3)Gal): -0.228
- glycan array binding signal (z-score) [17]: -0.212
- glycan array binding signal (z-score) [18]: -0.221
- glycan array binding signal (z-score) [19]: -0.206
- glycan array binding signal (z-score) (GalNAc(b1-3)GalNAc): -0.204
- glycan array binding signal (z-score) (GalNAc(b1-3)GlcNAc): -0.21
- glycan array binding signal (z-score) (GalNAc(b1-4)Gal(b1-4)Glc): -0.207
- glycan array binding signal (z-score) (GalNAc(b1-4)GlcNAc): -0.219
